# Test results from a collection of fitness landscapes (doi:10.1126/science.1257360).
# The other results are listed elsewhere or left out.
# B1: PhoQ; a variant is named by its letters at X, in order, P23837 (parent)
# chain: MKKLLRLFFPLSLRVRFLLATAAVVLVLSLAYGMVALIGYSVSFDKTTFRLLRGESNLFYTLAKWENNKLHVELPENIDKQSPTMTLIYDENGQLLWAQRDVPWLMKMIQPDWLKSNGFHEIEADVNDTSLLLSGDHSIQQQLQEVREDDDDAEMTHSVAVNVYPATSRMPKLTIVVVDTIPVELKSSYMVWSWFIYVLSANLLLVIPLLWVAAWWSLRPIEALAKEVRELEEHNRELLNPATTRELTSLVRNLNRLLKSERERYDKYRTTLTDLTHSLKTPLXXLQXXLRSLRSEKMSVSDAEPVMLEQISRISQQIGYYLHRASMRGGTLLSRELHPVAPLLDNLTSALNKVYQRKGVNISLDISPEISFVGEQNDFVEVMGNVLDNACKYCLEFVEISARQTDEHLYIVVEDDGPGIPLSKREVIFDRGQRVDTLRPGQGVGLAVAREITEQYEGKIVAGESMLGGARMEVIFGRQHSAPKDE
# Variants of: B1
# Assay: enrichment ratio after two sorts for PhoP signalling (ratio (wild type AVST 3.29)); higher = more functional
# Details: with PhoP (E. coli)
row,Variant,enrichment ratio
1,QNRV,≤ 0.25
2,SKTR,≤ 0.25
3,FKYV,≤ 0.25
4,YALM,12.7
5,PKRN,≤ 0.25
6,LSGP,≤ 0.25
7,RGKS,≤ 0.25
8,WWLA,≤ 0.25
9,FRGP,≤ 0.25
10,KHNT,≤ 0.25
11,SAQQ,3.36
12,ACQL,0.353
13,GHTF,≤ 0.25
14,LKNE,≤ 0.25
15,RENF,≤ 0.25
16,WPLW,≤ 0.25
17,NVKK,≤ 0.25
18,DGSR,0.412
19,NSHR,≤ 0.25
20,DMGK,≤ 0.25
21,RGKR,≤ 0.25
22,QPTQ,≤ 0.25
23,IENP,≤ 0.25
24,AGMP,≤ 0.25
25,IFEP,0.883

row,Variant,enrichment ratio
1,DSIE,≤ 0.25
2,AFPL,≤ 0.25
3,HETC,3.38
4,TPTD,≤ 0.25
5,QCAI,≤ 0.25
6,TMMG,23.4
7,ACCM,14.9
8,WDDL,≤ 0.25
9,TDEV,≤ 0.25
10,ILSF,≤ 0.25
11,VQKM,≤ 0.25
12,KDCG,≤ 0.25
13,PILW,≤ 0.25
14,AAIP,≤ 0.25
15,DYQN,≤ 0.25
16,PLIN,≤ 0.25
17,SWWP,≤ 0.25
18,AQWQ,≤ 0.25
19,THFR,≤ 0.25
20,QGFG,0.598
21,GGAS,0.78
22,LREP,≤ 0.25
23,ELST,≤ 0.25
24,ASKE,≤ 0.25
25,VKCL,≤ 0.25

row,Variant,enrichment ratio
1,KIIT,≤ 0.25
2,YTLM,9.3
3,KGGF,≤ 0.25
4,YEVT,0.273
5,FPWL,≤ 0.25
6,QCLD,≤ 0.25
7,AHGL,≤ 0.25
8,GEYL,≤ 0.25
9,LLIK,≤ 0.25
10,EFVM,≤ 0.25
11,DTEP,≤ 0.25
12,NVPD,≤ 0.25
13,WDSC,≤ 0.25
14,NEDA,≤ 0.25
15,IDVG,≤ 0.25
16,RMLW,≤ 0.25
17,FWFA,≤ 0.25
18,HKPY,≤ 0.25
19,WQIF,≤ 0.25
20,IQEC,≤ 0.25
21,TVIC,≤ 0.25
22,VMGD,≤ 0.25
23,LQLR,≤ 0.25
24,ARCI,6.48
25,ADCS,≤ 0.25

row,Variant,enrichment ratio
1,DAEG,≤ 0.25
2,LMIK,≤ 0.25
3,SQGD,≤ 0.25
4,YPCW,≤ 0.25
5,EDQQ,≤ 0.25
6,SYQS,≤ 0.25
7,NSDQ,≤ 0.25
8,RLHD,≤ 0.25
9,SWCN,≤ 0.25
10,LFSH,≤ 0.25
11,TWKF,≤ 0.25
12,QMLM,≤ 0.25
13,HFYT,≤ 0.25
14,EPTG,≤ 0.25
15,DDLY,≤ 0.25
16,NKEI,≤ 0.25
17,PLVS,≤ 0.25
18,YIKW,≤ 0.25
19,EALK,≤ 0.25
20,DHKL,≤ 0.25
21,AKQG,≤ 0.25
22,VSWV,1.62
23,CSHW,≤ 0.25
24,WGSM,≤ 0.25
25,WMYP,≤ 0.25

row,Variant,enrichment ratio
1,YKCN,≤ 0.25
2,YTVA,≤ 0.25
3,TFIG,≤ 0.25
4,PWFP,≤ 0.25
5,WPHH,≤ 0.25
6,FSNE,≤ 0.25
7,GNRR,≤ 0.25
8,LRDE,≤ 0.25
9,PFMQ,≤ 0.25
10,RYQL,≤ 0.25
11,YSAC,≤ 0.25
12,EAKC,≤ 0.25
13,YLTC,≤ 0.25
14,MTHI,0.77
15,MEAV,7.57
16,FQKI,≤ 0.25
17,MHML,≤ 0.25
18,WAAN,≤ 0.25
19,FMPR,≤ 0.25
20,HIHR,≤ 0.25
21,TAPE,≤ 0.25
22,YFEK,≤ 0.25
23,RQGV,≤ 0.25
24,MVFC,≤ 0.25
25,NFSE,≤ 0.25

row,Variant,enrichment ratio
1,HFMC,≤ 0.25
2,YMMW,≤ 0.25
3,VKWE,≤ 0.25
4,WARM,≤ 0.25
5,VFMQ,≤ 0.25
6,NNNP,≤ 0.25
7,VTFS,≤ 0.25
8,GIRH,≤ 0.25
9,FMVP,≤ 0.25
10,LHDT,≤ 0.25
11,ETCV,≤ 0.25
12,LNFP,≤ 0.25
13,MKFE,≤ 0.25
14,PDGF,≤ 0.25
15,FCTD,≤ 0.25
16,LIIS,≤ 0.25
17,YSTQ,≤ 0.25
18,HMKF,≤ 0.25
19,WLPQ,≤ 0.25
20,WNGN,≤ 0.25
21,RQRG,≤ 0.25
22,HVIP,≤ 0.25
23,PRQS,≤ 0.25
24,FYAV,≤ 0.25
25,YEKI,≤ 0.25

row,Variant,enrichment ratio
1,QCWK,≤ 0.25
2,HFWM,≤ 0.25
3,WMCN,≤ 0.25
4,YTFI,≤ 0.25
5,VNLE,≤ 0.25
6,ADDY,≤ 0.25
7,VNVG,0.357
8,LDYA,≤ 0.25
9,LVMK,≤ 0.25
10,GPCG,≤ 0.25
11,PPME,≤ 0.25
12,YSGF,≤ 0.25
13,QKFH,≤ 0.25
14,DQCA,≤ 0.25
15,SCAQ,3.78
16,GFTI,≤ 0.25
17,FHDF,≤ 0.25
18,VYRL,≤ 0.25
19,HWWS,≤ 0.25
20,AWPE,≤ 0.25
21,HQII,≤ 0.25
22,TSWC,17.5
23,HSHK,≤ 0.25
24,WFPQ,≤ 0.25
25,EKPN,≤ 0.25

row,Variant,enrichment ratio
1,TCEA,≤ 0.25
2,AMNS,≤ 0.25
3,LHLW,≤ 0.25
4,RCIC,≤ 0.25
5,AGKA,≤ 0.25
6,VESW,≤ 0.25
7,LPVT,≤ 0.25
8,SAAS,4.35
9,HVIN,≤ 0.25
10,WEGP,≤ 0.25
11,YILS,0.603
12,PYTC,≤ 0.25
13,STNN,2.04
14,LTPV,≤ 0.25
15,MPYL,≤ 0.25
16,VAKS,≤ 0.25
17,SKWS,0.766
18,PAHA,≤ 0.25
19,PWEP,≤ 0.25
20,ICRW,≤ 0.25
